# Measured values from the supplement of paper PMC3334620.
# The full ranking holds about 33,000 sequences; the median of “E-score (-0.5 to 0.5)” is about -0.036, and the highest 2% start at about 0.37. The list shows a part of the results.
# Target: T1, Yer064c (UniProt P40041)
# T1 sequence: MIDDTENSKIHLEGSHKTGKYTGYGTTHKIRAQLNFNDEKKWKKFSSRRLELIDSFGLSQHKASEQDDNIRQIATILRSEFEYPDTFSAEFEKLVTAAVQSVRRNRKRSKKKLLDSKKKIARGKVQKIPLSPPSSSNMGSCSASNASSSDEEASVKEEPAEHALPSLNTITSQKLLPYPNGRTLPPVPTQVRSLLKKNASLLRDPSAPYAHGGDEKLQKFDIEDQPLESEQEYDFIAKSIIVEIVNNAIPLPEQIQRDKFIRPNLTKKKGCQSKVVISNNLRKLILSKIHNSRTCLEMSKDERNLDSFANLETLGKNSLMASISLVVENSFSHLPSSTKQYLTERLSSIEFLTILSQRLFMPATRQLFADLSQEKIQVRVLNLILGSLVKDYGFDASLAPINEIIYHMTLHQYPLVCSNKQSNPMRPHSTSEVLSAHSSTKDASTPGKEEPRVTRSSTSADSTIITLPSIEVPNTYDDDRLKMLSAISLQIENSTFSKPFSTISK
# Assay: PBM E-score (8-mer binding enrichment) (E-score (-0.5 to 0.5)); higher = stronger / more preferred TF binding; most listed sequences are background and not binding sites
# Conditions: protein concentration: 200 nM; construct: GST-full length
# Procedure, shortened: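 Each ungapped eight-base word and its reverse complement, pooled, received an E-score from the Universal PBM Analysis Suite. Underlying scans, normalised with masliner, recorded fluorescent anti-GST bound to GST-tagged yeast transcription factors. These were applied at about 100-200 nM to universal all-10-mer Agilent arrays double-stranded by primer extension.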
row,Sequence,PBM E-score
1,CGACTCTA,0.343
2,ACAGCCCC,-0.294
3,CTCCCGAC,0.0378
4,AAGGCTTC,-0.227
5,GCGCAGAC,-0.148
6,CCAGAAGA,0.0953
7,CCTTTCAA,-0.019
8,ACGCGATG,-0.154
9,CGGTTCAG,-0.212
10,CAGAAATG,-0.0347
11,GGGTGAGA,0.00875
12,AAGTCGCG,0.211
13,AACGAGCG,-0.262
14,GATGCTCA,-0.049
15,AATCTGGC,-0.157
16,ATTCTGCG,-0.0116
17,CTGCTTTA,0.0882
18,CACCTGAA,-0.11
19,GGACAGTA,0.0279
20,CTACCGGA,0.109
21,CACCTATC,-0.105
22,TCGGTTCA,0.0658
23,GCTCGACC,-0.174
24,TAAAATAA,0.104
25,CGGACTTC,-0.0346

row,Sequence,PBM E-score
1,ACAGTAAT,0.171
2,CTGGTGCC,-0.348
3,CGTTGAGC,-0.0882
4,ACGCCCGT,-0.165
5,TGGACGAA,-0.0268
6,ATACCATA,0.0728
7,CATTAAGG,0.0276
8,CGACACCG,-0.0725
9,AGCTATGG,-0.0301
10,AAATAACT,0.124
11,TACGTCCA,-0.306
12,ATCTGTAC,0.0286
13,CATGAAAC,-0.0319
14,ACGGCGAA,0.0962
15,GTCGACGA,0.0812
16,CCCTGGTA,-0.174
17,CAACCTAA,-0.0182
18,GAAAGGCA,-0.145
19,GGAGTGGA,-0.284
20,TAGGGCAA,-0.161
21,CAGTCATA,0.448
22,GATCGACC,-0.226
23,ACCCGACC,-0.0491
24,CCGCTTGA,-0.00042
25,GCGTGGCA,-0.187

row,Sequence,PBM E-score
1,AACAGGCG,-0.131
2,ATAATGTA,0.0267
3,CAGTGTTA,-0.0938
4,CAGCTATG,0.0402
5,CATGGACA,-0.0537
6,GTCGCGCA,0.276
7,CTACCCAA,-0.0352
8,CATGTCCA,-0.0946
9,CTACAAAG,0.114
10,GATCAGAA,0.00565
11,AGTGACAG,0.00347
12,ATACCCCG,-0.181
13,CATTCAGC,-0.138
14,AAGGGCAA,-0.178
15,ACTCTACG,0.0462
16,GAAGGACA,-0.0606
17,ACAGCGTA,-0.235
18,CAATCAAC,0.196
19,ACTTGTCG,-0.188
20,GGAAACCA,-0.064
21,GGCCTGAA,-0.266
22,AAATGTAA,0.125
23,AGTTTCTC,-0.105
24,ACCATTTC,0.00669
25,CCCGTAAG,-0.139

row,Sequence,PBM E-score
1,AACCCATC,0.0717
2,ATGGACAT,-0.0808
3,CCTCTTTA,0.0254
4,GTAGTGTA,-0.0101
5,CCTAGATC,-0.134
6,GCTAAAGC,-0.0655
7,ATTATTGG,0.0609
8,ACTCTGCA,0.148
9,CGTACAGC,-0.242
10,GCGAGCCA,0.161
11,CAGATCGG,-0.21
12,ATCACCTG,0.167
13,TAAGTGAA,0.02
14,GGCAAGAC,-0.163
15,CGCCACCC,-0.128
16,GACCCAAA,-0.0506
17,GTTATTCA,0.147
18,ATGCACTA,0.00971
19,AGCGATAT,-0.122
20,GCCCTCCC,-0.383
21,CCAATTGA,0.0265
22,CAAAATAC,0.0892
23,CGGTATAA,-0.00073
24,ATATCCTG,-0.181
25,CGGTTAAC,0.0189

row,Sequence,PBM E-score
1,AGGCCTAC,-0.19
2,AAGCCGTG,-0.0669
3,CGGGTTTC,-0.167
4,AACAGATT,0.0753
5,GACCTCAC,0.0931
6,CATCGTTA,-0.0177
7,ATTCATTA,0.21
8,CATTGTGG,-0.0124
9,TCCCAGCA,-0.0166
10,GAGGGCCA,-0.0553
11,AAAACGCC,-0.112
12,CTGTTGCA,-0.0513
13,AGACTGGC,-0.0548
14,ACCTCTTC,-0.00529
15,GCTATCTA,-0.0535
16,AAAACACT,-0.0988
17,CTTCACTC,0.0415
18,GGCTTACC,-0.179
19,CGTTAAGC,0.0294
20,CCAAGTAC,-0.0857
21,AGGCCCTC,-0.152
22,AACGAGAT,-0.0275
23,AGAACGTC,0.0892
24,GATTCTCA,0.221
25,AGGGACGC,-0.21

row,Sequence,PBM E-score
1,ACCTGCGC,-0.343
2,AGGCATCG,-0.125
3,GAGTCTGC,0.312
4,AAGCTGTC,-0.12
5,CCCTAACA,-0.0101
6,GAACGTAA,-0.0281
7,CAGCCTTC,-0.154
8,GTACTGGA,0.0546
9,AGTCCCGC,0.13
10,ACGTTGGA,0.00333
11,CACCTATA,-0.0539
12,AGACGTCG,-0.185
13,GACGGTAA,-0.284
14,ACAAAGGA,-0.046
15,CAATTAGG,0.00698
16,CTCCAATA,0.147
17,ATCGGCCG,-0.0923
18,GAAGCGAA,-0.0936
19,AGTATCGG,-0.0639
20,ACATTCGT,0.00692
21,ACAGACTG,0.0873
22,ATGATTAA,0.472
23,TCACACGA,0.217
24,GCCCTGAC,0.0266
25,TACACTGA,0.215

row,Sequence,PBM E-score
1,GTAAAGAC,0.147
2,CCCTCAAA,-0.0974
3,ATTAATTC,0.16
4,AGGGATCA,0.118
5,AGCAACCC,-0.216
6,CACTGAGC,0.0406
7,GTGAGAAC,-0.00457
8,AACGGGGT,-0.0766
9,AGAAAACA,0.122
10,ACAAATGC,-0.00989
11,CGGAAACC,-0.0658
12,AAAGGACA,0.0814
13,GTCATGGA,0.292
14,TAGCCGCA,-0.0712
15,ATCAAATC,0.21
16,CAGGACAG,0.0711
17,GAGGCCAA,-0.113
18,AATTGAGA,0.223
19,CCGATTAC,-0.132
20,TACCACTA,-0.137
21,AAGAAACA,-0.0402
22,GGGCACCC,-0.269
